Some of the results follow.

B1: chr17:46339502:46339774:-|CDS|ENSG00000228696|control|control|control (ssRNA)
RNA: GGGAGUUCUACAGUCCGACGAUCUGUAGUCACGUGGAAUUUGGAAUGUGGAAAGGAGGUAGAAGUCAUCCUUUCCUCCCCCAUAGCAGCAGGUGUGCAGGCUCUGGUGGUCAGCUGGACUCCAUACUCCCCCACCAGUCACCACAACAGAGGAUUGAGCAUCA
B2: ENSG00000107863:be:win_1|CDS|ENSG00000107863|bound_else_gene|NA|bound_elsewhere_windowed (ssRNA)
RNA: GGGAGUUCUACAGUCCGACGAUCAUGAUGGCCACGCGUCGGACUGGUCUGUCUGAGGGAGAUGGUGACAAGCUCAAGGCCUGCGAGGUCUCAAAAAAUAAAGAUGGAAAAGAACAAAGUGAAACUGUAUCACUGUCUGAAGAUCAACAGAGGAUUGAGCAUCA
B3: chr20:3864521:3864622:+|CDS|ENSG00000088888|msi1|total|mutant (ssRNA)
RNA: GGGAGUUCUACAGUCCGACGAUCGCCCUGAAAGUGCCUGCCAACCCAGCAUCUGUCAGCACAGUGCCCUCCAAGUUGCCAACCCGCUCAAAGCCCCCUGGUGCAGUGCCUUCUAAUGCGCUCACCAAUCCAGCACCAUCCAAACAACAGAGGAUUGAGCAUCA
B4: ENSG00000198589:be:win_6251|CDS|ENSG00000198589|bound_else_gene|NA|bound_elsewhere_windowed (ssRNA)
RNA: GGGAGUUCUACAGUCCGACGAUCGCACUCUUUCUGUCACCUCCUCCGAACUCUAUUUUGAGGUGGAUGAAGAGGAUCCUAACUUCAAAAAAAUCGACCCCAAGAUCUUGGCAUAUACAGAAGGGCUGCAUGGAAAAUGGCUGUCAACAGAGGAUUGAGCAUCA
B5: chr6:53267885:53267986:-|3pUTR|ENSG00000012660|msi1_unk|total|mutant (ssRNA)
RNA: GGGAGUUCUACAGUCCGACGAUCUUUAAUGUAAAUCUAACCGUACUUGUAAUUUCUUUCUGCUCCGAAUCUAAAGAUGUGUUCCGAACCUCUUGUUUAAAAAUAACCGACUGCUUAUCAUAAAAUCACAUCUCACACAUUUGACAACAGAGGAUUGAGCAUCA
B6: chr11:13729208:13729309:+|3pUTR|ENSG00000197601|unk|FALSE|unique (ssRNA)
RNA: GGGAGUUCUACAGUCCGACGAUCAAAGUUGGUAGAUAUUUGAUUCUUCAUUUUUUGUUUUUUUCAUUAGUUGAAGUGGGUUUUAGUUUUGUUUAAAAUUAUAACCAGCGUAUUUUCACAUCAUUCUGUAAGUUAAAUGAUAUCCAACAGAGGAUUGAGCAUCA
B7: chr2:135724104:135724205:+|CDS|ENSG00000048991|msi1|total|mutant (ssRNA)
RNA: GGGAGUUCUACAGUCCGACGAUCCAACACUGCCAACCCUGAACGCUCUAAACCCAGUGACUUGGCCUCCACCUACACCGUCUCCGCCACAUUCCCCUCCAUUUCAGCUGCACAGAAUGCACUGAAGAAACAAAUUAACUCAGUCAACAGAGGAUUGAGCAUCA
B8: chr5:141516432:141516515:-|3pUTR|ENSG00000131504|msi1_unk|total|mutant (ssRNA)
RNA: GGGAGUUCUACAGUCCGACGAUCCUCAGACAAGGCCCAGCCUGCUUUUUCUCAGCCCUGACUUUCUAAUGGGCUUUCCCCCCCCGGUCAGUCUUGCUGGAUUUGUGCUUUUCUUUUGUGGUUUCUCUGGCCCUGAGAACCGCACAACAGAGGAUUGAGCAUCA
B9: chr2:96375651:96375752:+|3pUTR|ENSG00000121152|unk|FALSE|unique (ssRNA)
RNA: GGGAGUUCUACAGUCCGACGAUCAUUGACUAAGACAGUGGGUAUGCAAGAUAAGUUUAUUUUAUAUAAAAUACUUUGGGAAGUAGGUGUUCUAGGACUGGUGUGACAGUUCCAUGAAAUUAUGAGAGACCGGGGAUCCUUCCACAACAGAGGAUUGAGCAUCA
B10: chr16:68260521:68260622:+|3pUTR|ENSG00000103066|msi1|total|mutant (ssRNA)
RNA: GGGAGUUCUACAGUCCGACGAUCUCGCAGCUUCCCUGAGCUGCACCUCUUGCUAACCCCACCAUCACACUGCCACCCUGCCCCCGGGUCUCACCCGUACCAAGUGGGUCAGCACAGGGCUGAGGAUGGGGCUCCUAUCCACCCCAACAGAGGAUUGAGCAUCA
B11: chr5:16663783:16663884:-|3pUTR|ENSG00000145555|msi1|total|mutant (ssRNA)
RNA: GGGAGUUCUACAGUCCGACGAUCUGAGGAUACAAAAUUCACAGAUGCUCAAGUCCCUGCUAUACAGUGGUAUAAUAUUUGCACCGAACCUGCACACAUCUUUCCUUACCCUUUAAAUCAUCUCCAGGUUACAGAUACCCCGCACAACAGAGGAUUGAGCAUCA
B12: ENSG00000159459:stop:overlap|stop_codon|ENSG00000159459|stop_codon|NA|stop_codon (ssRNA)
RNA: GGGAGUUCUACAGUCCGACGAUCUCCGCUCACUGACCUCUCCCUCUCUGACUCAAGCAAUUCUCCCACCUCAGCCUCCCGAAUAGCUGGGACCACAGUGGUGGGAUCAGCAAGUUGAUUUUUAUACUGCUUUCUUGCAUCAUUCAACAGAGGAUUGAGCAUCA
B13: chr8:97851540:97851652:+|3pUTR|ENSG00000104341|msi1_unk|FALSE|overlapping (ssRNA)
RNA: GGGAGUUCUACAGUCCGACGAUCCACUUUUGCCAUGAGCCUCUCUGAGCUUGUUUGUUGCUGAAAUGCUACUUUUUAAAAUUUAGAUGUUAGAUUGAAAACUGUAGUUUUCAACAUAUGCUUUGCUGGAACACUGUGAUAGAUCAACAGAGGAUUGAGCAUCA
B14: chrX:152133309:152134510:-|three_prime_utr|ENSG00000124260|control|control|control (ssRNA)
RNA: GGGAGUUCUACAGUCCGACGAUCUGAUUUUACUCAUAUGUGGAAUCUAAAAAAAAAAAAAAAAAAAGUUGGUAUCAUGGAAGUAGAGAGUAGAGCAGUAGUUACAUUACAAUUAAAUAGGAGGAAUAAGUUCUAGUGUUCUAUCAACAGAGGAUUGAGCAUCA

For this experiment, the target named is MSI1 full-length (mouse, UniProt Q61474 1-362). In words: nsRBNS (natural sequence RNA bind-n-seq); RBNS binding buffer (assumed for nsRBNS): 25 mM Tris pH 7.5, 150 mM KCl, 3 mM MgCl2, 0.01% Triton X-100, 500 ug/ml BSA, 20 U/ml SUPERase-In, 4 C; UNK is unkempt and MSI1 is Musashi-1; names of the RNAs are library labels; protein concentration not given here; high values mean tight binding.
UniProt Q61474, sequence (Q61474 whole entry): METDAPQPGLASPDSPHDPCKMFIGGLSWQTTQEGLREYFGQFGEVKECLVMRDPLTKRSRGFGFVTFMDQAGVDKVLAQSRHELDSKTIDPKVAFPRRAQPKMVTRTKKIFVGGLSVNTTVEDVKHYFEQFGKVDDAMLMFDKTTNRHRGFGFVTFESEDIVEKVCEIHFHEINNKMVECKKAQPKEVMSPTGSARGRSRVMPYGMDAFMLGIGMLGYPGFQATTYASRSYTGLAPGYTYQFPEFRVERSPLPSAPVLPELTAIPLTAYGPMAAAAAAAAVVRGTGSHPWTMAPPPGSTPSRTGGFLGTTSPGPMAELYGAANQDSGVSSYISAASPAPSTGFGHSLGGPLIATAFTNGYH
In the case of B1, the binding signal was determined as 0.823 enrichment R.
Under B2 stands 0.413 enrichment R.
To B3 belongs 0.629 enrichment R; to B4, 0.458 enrichment R; to B5, 1.15 enrichment R.
As for B6, the binding signal came out at 1.97 enrichment R.
B7 registered a binding signal of 0.922 enrichment R.
As to B8, the binding signal was found to be 0.383 enrichment R.
As to B9, the binding signal is 0.736 enrichment R.
B10 returned a binding signal of 0.534 enrichment R.
The molecule B11 showed a binding signal of 0.778 enrichment R.
Turning to B12, the binding signal was 0.651 enrichment R.
In turn, B13 gave a binding signal of 0.952 enrichment R.
In turn, B14 registered a binding signal of 8.34 enrichment R.

The values above are taken from article PMC12136788.
